# Reference: publication PMC4336329 (PLoS ONE, 2015)
# Out of some 310,000 compounds screened, about 14,000 (4.5%) showed an effect of 50% or more. The effect is printed as a negative number. The list shows a part of the results.
# Molecular target: human ether-à-go-go-related gene (hERG) potassium channel (human, UniProt Q12809)
# Experiment: primary screen, population patch clamp on CHO cells stably expressing hERG
# 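Note: peak tail current of the secondary pulse compared with the same well before compound.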
# human ether-à-go-go-related gene (hERG) potassium channel, sequence (Q12809 whole entry, looked up): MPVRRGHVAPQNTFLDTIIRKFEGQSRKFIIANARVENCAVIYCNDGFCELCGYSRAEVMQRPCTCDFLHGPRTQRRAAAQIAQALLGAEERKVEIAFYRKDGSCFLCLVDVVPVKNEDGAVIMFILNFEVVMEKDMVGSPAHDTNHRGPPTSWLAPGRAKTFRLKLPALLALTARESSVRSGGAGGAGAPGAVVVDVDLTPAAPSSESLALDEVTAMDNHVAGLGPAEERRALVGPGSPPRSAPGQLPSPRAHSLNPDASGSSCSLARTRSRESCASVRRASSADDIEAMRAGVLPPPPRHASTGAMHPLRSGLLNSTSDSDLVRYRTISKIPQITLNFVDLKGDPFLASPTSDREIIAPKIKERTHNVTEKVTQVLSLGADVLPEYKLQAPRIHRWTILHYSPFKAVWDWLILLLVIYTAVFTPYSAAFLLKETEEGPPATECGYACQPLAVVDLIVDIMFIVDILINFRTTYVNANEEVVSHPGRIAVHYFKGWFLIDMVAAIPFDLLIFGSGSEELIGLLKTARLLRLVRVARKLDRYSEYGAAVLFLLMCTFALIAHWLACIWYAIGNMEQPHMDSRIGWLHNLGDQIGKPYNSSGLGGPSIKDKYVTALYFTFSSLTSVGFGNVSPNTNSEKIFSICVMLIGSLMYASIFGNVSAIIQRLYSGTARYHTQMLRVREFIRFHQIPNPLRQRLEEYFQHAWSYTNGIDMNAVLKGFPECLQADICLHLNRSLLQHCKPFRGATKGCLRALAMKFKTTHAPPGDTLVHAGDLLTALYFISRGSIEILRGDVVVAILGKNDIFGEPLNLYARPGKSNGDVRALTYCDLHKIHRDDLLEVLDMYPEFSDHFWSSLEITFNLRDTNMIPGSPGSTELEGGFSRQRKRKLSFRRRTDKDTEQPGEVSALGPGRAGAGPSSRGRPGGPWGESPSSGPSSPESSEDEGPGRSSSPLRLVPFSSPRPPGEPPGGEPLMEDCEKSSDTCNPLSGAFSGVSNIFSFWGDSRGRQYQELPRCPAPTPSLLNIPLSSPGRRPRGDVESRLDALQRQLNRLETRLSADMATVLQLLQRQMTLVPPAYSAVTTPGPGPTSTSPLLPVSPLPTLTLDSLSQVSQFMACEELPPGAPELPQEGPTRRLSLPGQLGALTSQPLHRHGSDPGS
row,SMILES,"hERG current change (%, negative = inhibition) at 10uM [%]"
1,Cc1cc(Nc2n[nH]c(N)c2C#N)ccc1F,-70.2
2,Cc1ccc(NC(=O)CSc2nc3ccccc3c(=O)n2Cc2cccs2)cc1,7.4
3,COc1ccccc1NS(=O)(=O)c1ccc(C(=O)NCc2ccncc2)cc1,-14.3
4,Cc1ccc(C(=O)c2no[n+]([O-])c2C(=O)c2ccc(C)cc2)cc1,-48
5,COc1ccccc1-n1cc(-c2ccc([N+](=O)[O-])cc2)[nH]c1=S,1.29
6,CCN(CC)c1ncnc2sc(C(=O)N3CCN(c4ccccc4)CC3)c(C)c12,-50.2
7,COc1cccc(N(CC(=O)NCCSCc2ccco2)S(=O)(=O)c2ccccc2)c1,-46.3
8,COc1cc(C2NC(=O)NC(C)=C2C(=O)OCC2CCCO2)cc(OC)c1OC (centres unmarked),18.8
9,CCN(CC)P(=O)(/C=C(\Cl)c1ccccc1)/C=C(\Cl)c1ccccc1,-6.79
10,COc1ccc(CCN2CC(C(=O)NCc3ccco3)CC2=O)cc1OC (centres unmarked),-3.98
11,CCOc1ccc(C(=O)NCCc2cnc[nH]2)cc1OCC,21.1
12,O=C(Cn1ccc(NC(=O)OCc2ccccc2)nc1=O)NCCCc1ccccc1,16.3
13,COc1cccc(C(=O)Nc2nc(-c3ccc(S(=O)(=O)N4CCOCC4)cc3)cs2)c1,1
14,COc1ccccc1CCNS(=O)(=O)c1ccc(C(=O)O)n1C,25.9
15,O=C1CN(C(=O)/C=C/c2ccc(Cl)cc2Cl)CCN1,-19.2
16,COc1ccccc1CC(=O)Nc1ccc(Cl)cc1C(=O)O,18.3
17,O=C1NC(=Nc2cccc([N+](=O)[O-])c2)SC1(CO)CO,1.09
18,O=C1NC(=O)N(c2ccc3c(c2)OCO3)C(=O)/C1=C/c1cccs1,18.7
19,CCOc1ccccc1N(C)S(=O)(=O)c1ccc2c(c1)CCN2C(=O)CCC(=O)O,21.4
20,CCOc1ccc(N2C(=O)C3C(c4ccc(OC)cc4OC)NC(CCSC)(C(=O)OC)C3C2=O)cc1 (centres unmarked),-2.31
21,Fc1ccc(Cn2cccc2C2=NC(c3ccccc3)CO2)cc1 (centres unmarked),-0.841
22,COCCN(CC(=O)NCc1ccc(F)cc1)C(=O)CCC(=O)Nc1ccccn1,-1.92

row,SMILES,"hERG current change (%, negative = inhibition) at 10uM [%]"
1,CCn1nc(C)c(/C=N/NC(=O)Cn2nc(C)cc2C)c1C,3.81
2,CC(=O)c1ccc(NC(=S)NC(C)CCc2ccccc2)cc1 (centres unmarked),3.94
3,O=C(Oc1c(CN2CCOCC2)cc(Cl)c2cccnc12)c1ccccc1Cl,-11.5
4,Cc1ccc(S(=O)(=O)N2CCCCC2)cc1C(=O)NCc1ccncc1,2.22
5,CCc1ccc(/C=N\n2cnnc2)cc1,4.73
6,O=C(c1cccc(-n2cnnn2)c1)N1CCOCC1,-8.49
7,CCc1nccn1S(=O)(=O)c1cc(OC)c(Cl)cc1OC,7.17
8,COc1ccc(N(CC(=O)N2CCN(C)CC2)S(=O)(=O)c2ccccc2)cc1,-23.2
9,COc1ccc(-n2cc(CN(C)C3CCOCC3)c(-c3cccc(F)c3)n2)cc1,-29.1
10,CC(=O)OCC(=O)[C@@]1(O)CC[C@H]2[C@@H]3CCC4=CC(=O)C=C[C@]4(C)[C@H]3C(=O)C[C@@]21C,21.2
11,CC(=O)Nc1ccc(Nc2nc(C)c([N+](=O)[O-])c(Nc3ccc(NC(C)=O)cc3)n2)cc1,30.3
12,O=C(C1CCCN(S(=O)(=O)c2cccc3cccnc23)C1)N1CCN(c2ccc(F)cc2)CC1 (centres unmarked),-67.5
13,COc1ccc(CN(CC2CCCO2)S(=O)(=O)c2ccc(C(=O)O)cc2)cc1OC (centres unmarked),-8.45
14,C=CCn1c(-c2csc(-c3ccccc3)n2)n[nH]c1=S,22.7
15,CN(C)/C(=N\S(=O)(=O)c1ccc(Cl)cc1)c1ccc(F)cc1,3.4
16,Cn1nccc1C(=O)NC1CCCc2c1cnn2-c1ccc(C(C)(C)C)cc1 (centres unmarked),7.81
17,COc1cc(S(=O)(=O)NCc2ccccc2)ccc1Br,10.9
18,COc1ccc(C(=O)Nc2cc(C(=O)c3ccccc3)c(C)oc2=O)cc1,6.39
19,O=S(=O)(Nc1nc2ccccc2nc1-[n+]1cccc(N=C([O-])c2ccc(Cl)cc2)c1)c1ccccc1,-1
20,CCOC(=O)COc1ccc2nsnc2c1Cl,9.35
21,CN(C)c1cccc(NC2=CC(=[N+]3CCOCC3)CC(C)(C)C2)c1.[I-],-65.6
22,CCCCn1c(N)c(N(CC(C)C)C(=O)CCS(=O)(=O)c2ccc(C)cc2)c(=O)[nH]c1=O,-2.73

row,SMILES,"hERG current change (%, negative = inhibition) at 10uM [%]"
1,O=C(C1CCN(S(=O)(=O)c2ccc3c(c2)OCCO3)CC1)N1CCc2ccccc21,1.53
2,COC(=O)Cn1cnc2ccccc2c1=O,-14.6
3,COc1ccc(-c2cc(Cl)cc3c(=O)c4ccccc4n(C)c23)cc1F,20.9
4,O=C(Nc1ccc([N+](=O)[O-])cn1)C1CC1,9.64
5,CCOC(=O)c1c(NC(=O)COC(=O)c2ccc(NC(=O)CC#N)cc2)sc(C(=O)NC)c1C,-10.1
6,Cc1ccc(NC(=O)Nc2nnc(CSCCOc3ccc(Cl)cc3)s2)cc1,4.44
7,O=C(c1ccc(F)cc1)C1CCN(C(=O)c2ccc(F)cc2)CC1,-22.7
8,Cc1n[nH]c(C)c1CCNCc1ccc(OCC(O)CN2CCCCC2)cc1 (centres unmarked),-19.3
9,CC(=O)c1c(C)[nH]c(C(=O)OCC(=O)c2ccc(C)s2)c1C,-22.9
10,Cc1nc2nc(-c3ccc(Cl)cc3)cn2nc1C,7.78
11,COc1ccccc1-c1nnc(SCC(=O)NCc2ccco2)n1N,17.2
12,Cc1ccc(CNC(=O)CS(=O)Cc2nc(-c3ccccc3C)oc2C)cc1 (centres unmarked),-35.2
13,COc1ccc(/C=C2\N=C(c3ccccc3)N(c3ccc(C(=O)O)cc3)C2=O)cc1OC,6.76
14,O=C(NC(=S)Nc1ccc(CN2CCOCC2)cc1)c1cccc([N+](=O)[O-])c1,10.7
15,CCOc1ccc(NS(=O)(=O)N(C)C)cc1,3.39
16,CCCC(=O)NC(=S)Nc1cccc(NC(=O)c2ccccc2Cl)c1,-3.15
17,O=C(/C=C/c1ccccc1)Oc1ccccc1C(=S)N1CCOCC1,-5.03
18,CC(C)S(=O)(=O)c1ccc(C(=O)Nc2ccc(F)cc2F)cn1,-8.17
19,Cc1ccc(NC(=O)CSCC(=O)NCCc2ccccn2)c(C)c1,14.8
20,Cc1ccc(S(=O)(=O)N(CC(=O)NCCSc2ccccn2)c2ccccc2F)cc1,-45.5
21,COc1ccc(OC)c(Nc2nc(N)c([N+](=O)[O-])c(N3CCOCC3)n2)c1,2.27
22,CC(C)Oc1ccc(C2CC(=O)NC3=C2C(=O)CCC3)cc1 (centres unmarked),13.8

row,SMILES,"hERG current change (%, negative = inhibition) at 10uM [%]"
1,CSc1cccc(NC(=O)C2CCN(S(=O)(=O)c3ccc4c(c3)NC(=O)CO4)CC2)c1,12.3
2,N/C(=N\OC(=O)CN1C(=O)c2ccccc2C1=O)c1ccc(Cl)cc1,-11.9
3,O=C(NCc1cccs1)c1ccc(CS(=O)(=O)c2ccc(Cl)cc2)o1,-24
4,CCC(C)(C)NC(=O)CN(C(=O)CCC(=O)Nc1ccccn1)c1ccc(F)c(Cl)c1,-1.31
5,Cc1nnc(NC(=O)CCN2C(=O)/C(=C\c3ccccc3)SC2=S)s1,8.61
6,CC(=O)NS(=O)(=O)c1ccc(N2C(=O)CC(Sc3nccc(C)n3)C2=O)cc1 (centres unmarked),19
7,Cc1ccc(-c2nnn(CC(=O)N(Cc3ccco3)C(C(=O)NC(C)(C)C)c3cccs3)n2)o1 (centres unmarked),-19.2
8,Clc1ccc(CN=C(Nc2ccccc2)NC2CCCCC2)cc1,-39.7
9,Cc1nn(Cc2n[nH]c(=S)n2Cc2ccccc2)c(C)c1Cl,14
10,O=C(NCc1ccc(/C=N\NC(=O)C(=O)Nc2ccccc2Br)o1)C(=O)Nc1ccccc1,21.9
11,Cc1cccc(N2C(=S)NC3c4cc(Cl)ccc4OC2(C)C3C(=O)N(C)C)c1 (centres unmarked),-2.47
12,O=C1N=c2ccccc2=C1c1sc(=S)n(NC(=O)c2ccccc2)c1O,11.2
13,O=C(O)c1n[nH]c2c1CCCC2,23.4
14,CCCCCCNc1c(C(=O)OCC)c(=O)[nH]c2ccccc12,-12.6
15,Nc1nc(SCC(=O)NCc2ccccc2)n[nH]1,14.4
16,CCC(C)NC(=O)c1cccc(OCc2c(C)noc2C)c1 (centres unmarked),10
17,Cc1occc1C(=O)/C(C#N)=C/c1ccc(O)c(Br)c1,6.16
18,CCOC(=O)c1cc(S(=O)(=O)NC2CCCCC2)cn1C,6.88
19,Cc1ccc(-c2ccc(CCC(=O)O)n2CC(=O)O)cc1,10.6
20,O=C(CCc1ccccc1)NC(NC(=S)Nc1cccc(Cl)c1)C(Cl)(Cl)Cl (centres unmarked),14.6
